PubChem BioAssay AID1346428 (National Center for Advancing Translational Sciences (NCATS), 2018)
Where “and” joins values, the source holds several entries; their conditions need not be identical. Equal entries are not always repeated. Screen size: about 48,000 compounds; about 1,200 (2.5%) were called active. Not shown: some 2% with an inconclusive outcome.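 The calls were made as follows: active = activation of at least 60% and not above a set upper limit (about 1 call in 100 departs from these limits); inconclusive = activation of 40% to 60%, or above that upper limit; inactive = activation under 40%.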 The list shows a part of the results.

target: Probable G-protein coupled receptor 32 (Homo sapiens) (UniProt O75388); assay: qHTS for Agonists of Human Resolvin D1 Receptor DRV1; details: CHO-K1 GPR32 beta-arrestin PathHunter luminescence, 90 min; at 76.9 µM; active compounds read high; zero percent set by DMSO-only wells; also: 0% is about no effect
UniProt O75388, sequence (O75388 whole entry, looked up): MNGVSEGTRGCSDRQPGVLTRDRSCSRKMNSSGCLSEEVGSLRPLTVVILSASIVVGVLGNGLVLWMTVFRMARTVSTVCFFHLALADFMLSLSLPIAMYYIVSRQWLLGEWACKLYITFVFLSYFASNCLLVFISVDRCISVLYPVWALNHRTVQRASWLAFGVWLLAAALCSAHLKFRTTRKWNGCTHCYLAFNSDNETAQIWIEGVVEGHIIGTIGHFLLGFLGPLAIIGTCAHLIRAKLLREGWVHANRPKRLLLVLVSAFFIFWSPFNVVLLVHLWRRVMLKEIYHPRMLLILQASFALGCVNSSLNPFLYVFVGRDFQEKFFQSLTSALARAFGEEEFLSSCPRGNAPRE
Summary of the method: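 Beta-arrestin recruitment read-out: luminescence from complemented beta-Gal in CHO-K1 GPR32 PathHunter cells, measured 1 h after detection reagent at ambient temperature following 90 min compound exposure at 37 °C; DMSO served as basal (EC0) control.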

activation, inactive:
O=C(CSc1nnc(-c2ccncc2)n1-c1ccccc1)Nc1ccc(Cl)c(Cl)c1 40.9%
COc1ccc(NC(=O)CSC2=Nc3ccccc3C3=NC(CC(=O)NCc4ccco4)C(=O)N23)cc1 (centres undefined) -25.3%
O=C(Cn1c(-c2cccs2)cc2ccccc21)N1CCN(c2ccccc2F)CC1 -8.95%
Clc1ccc(CCNc2nc3ccccc3c3nc(-c4ccccc4)nn23)cc1 -3.1%
CCN(C(=O)CSc1nnc(-c2cc(OC)c(OC)c(OC)c2)o1)c1ccccc1 33.7%
CCOc1ccc(NC(=O)Cn2cc(C(=O)c3cccs3)c3ccccc32)cc1 -17.5%
CCOc1cccc(CC(=O)NCc2ccc3c(c2)CCN3C(=O)c2ccc(F)cc2)c1OCC -5.64%
Cc1ccc(C(=O)N(Cc2ccco2)Cc2ccco2)cc1 -8.22%
CCOc1cc(CNC(=O)c2ccccc2NC(=O)c2nsc3ccccc23)ccc1OC -16.6%
CC1(C)S[C@@H]2[C@H](NC(=O)C(C(=O)O)c3ccccc3)C(=O)N2[C@H]1C(=O)O (some centres undefined) 24.4%
Cc1ccc(NC(=O)C2CCN(S(=O)(=O)c3ccc4[nH]c(=O)ccc4c3)CC2)cc1C 24.7%
CCc1ccc(CN(Cc2ccco2)c2cnc(S(C)(=O)=O)nc2C(=O)Nc2c(C)cccc2C)cc1 -16.2%
CCCc1cc(N2CCN(c3ccccc3)CC2)n2cnnc2n1 11%
CCc1cccc(CC)c1NC(=O)Cn1c(=O)c(-c2cc(C)ccc2NC(C)=O)nc2ccccc21 -6.44%
O=C1COc2cc(S(=O)(=O)CCC(=O)N3CCN(c4ccccc4F)CC3)c(Cl)cc2N1 -11.4%
Cn1c(=NC(=O)c2ccc(S(=O)(=O)N3CCCC3)cc2)sc2cc(F)ccc21 -0.158%
CCc1ccccc1NCc1nnc2n1CCCCC2 32.1%
CCOc1ccccc1NC(=O)C1CCN(S(=O)(=O)c2cc(Br)cc3c2N(C(C)=O)CC3)CC1 -4.16%
COc1cccc(CN2CCCN(CC(=O)Nc3ccc4c(c3)OCCO4)S2(=O)=O)c1 -3.05%
Cc1ccc(-c2nnc(SCC(=O)c3ccc(Cl)cc3)n2-c2ccccc2)cc1 -15.6%
Cc1oc(-c2ccccc2F)nc1CSCC(=O)N1CCN(c2ccccc2)CC1 4.27%
Cc1nc2nc(NC(=O)c3ccc(C(C)(C)C)cc3)[nH]n2c(=O)c1Cl 37.5%
COc1cccc(N(Cc2nnc3n2CCCCC3)C(=O)Nc2ccccc2)c1 3.86%
CCCCOc1ccc(C(=O)NCCc2sc(-c3ccc(OC)c(OC)c3)nc2C)cc1 1.89%
CCOc1ccc(CNC(=O)c2ccc3c(c2)N(CC)CCS3)cc1 -38.6%
CCN(CC)CCOC(=O)C(Cc1cccc2ccccc12)CC1CCCO1 (centres undefined) -1.46%
COc1ccc(N2CCN(C(=O)CSc3c4c(nc5ccc(Cl)cc35)CCCC4)CC2)cc1 -28.3%
O=C(Nc1cccc(O)c1)c1cc2nc(-c3ccc(Br)cc3)cc(C(F)(F)F)n2n1 -6.66%
CC1CCc2nc(NC(=O)COc3ccc(C(C)(C)C)cc3)sc2C1 (centres undefined) 3.53%
CCOC(=O)c1ncn2c1CN(C)C(=O)c1cc(F)ccc1-2 -3.77% and 5.41%
O=NN(CCCl)C(=O)NCCCl -23.6% and 6.21%
O=S(=O)(Nc1cccc(-c2ccc(N3CCCCC3)nn2)c1)c1cccs1 1.61%
COc1ccc(OC)c(C2CC(=O)c3c([nH]c(C(=O)OCC4CCCCC4)c3C)C2)c1 (centres undefined) -9.39%
Cc1cccc(CCn2c(=O)c3ccccc3n(Cc3cccc(F)c3)c2=O)c1 -16.7%
Cc1csc2nc(COC(=O)COc3ccccc3F)cc(=O)n12 2.73%
CC(=O)c1cccc(NC(=O)CCS(=O)(=O)c2cc(Br)cc3c2N(C(=O)C2CC2)CC3)c1 -7.35%
CCCC(=O)N1CC(=O)Nc2ccc(Cl)cc2C1c1ccc(F)cc1 (centres undefined) -9.28%
CCOc1ccc(S(=O)(=O)Nc2ccc3oc(C)c(C(=O)OCCOC)c3c2)cc1 -15.5%
O=C(Cc1ccc(NC(=O)N2CCSc3ncccc32)cc1)NCc1ccccc1Cl 40.9%
CCS(=O)(=O)c1ncc(N(Cc2ccco2)Cc2sccc2C)c(C(=O)Nc2cc(C)ccc2C)n1 -16.5%
COc1ccc(CCNC(=O)Cn2nnc(-c3ccc(C(F)(F)F)cc3)n2)cc1OC -11.7%
CCCn1c(=O)c2sccc2n2c(CCCC(=O)N3CCN(c4ccccc4)CC3)nnc12 -8.91%
Cn1c(C(=O)NCc2ccc(F)cc2)cc2c(=O)n(C)c3ccccc3c21 5.96%
CC[C@H](NC(=O)c1c(C)c(-c2ccccc2)nc2ccccc12)c1ccccc1 -11.6%
C[C@@H](N)C1CCC(C(=O)Nc2ccncc2)CC1 (some centres undefined) -6.61%
NCC(O)(CS(=O)(=O)O)c1ccc(Cl)cc1 (centres undefined) -0.755%
Cc1nc2ccn(Cc3cccnc3)c(=O)c2cc1C(=O)Nc1ccc(OC(F)(F)F)cc1 -7.47%
Cc1ccccc1NS(=O)(=O)c1ccc2[nH]cc(C(=O)N3CCCC3)c(=O)c2c1 -7.87%
Cc1cc(Br)ccc1NC(=O)CCS(=O)(=O)c1cccc2nonc12 17.8%
COc1ccc(Cl)cc1NS(=O)(=O)c1cc(-c2cc(C)no2)ccc1C -18.3%
O=C(NCC(c1cccs1)S(=O)(=O)c1cccs1)c1ccccc1 (centres undefined) -6.6%
CC(NC(=O)Cn1ncc2c3ccccc3n(Cc3ccc(F)cc3)c2c1=O)c1ccccc1 (centres undefined) -6.02%
CCOC(=O)c1ccc(NC(=O)C2Cc3ccccc3CN2S(=O)(=O)c2ccc(Cl)cc2)cc1 (centres undefined) -16.9%
CCOC(=O)c1c(NC(=O)c2noc3c2CC(C(C)(C)C)CC3)sc2c1CCCC2 (centres undefined) -10.1%
Cc1ccc(C)c(N2CCN(C(=O)CN3C(=O)COc4ccc(S(=O)(=O)N5CCCCCC5)cc43)CC2)c1 -8.07%
CC(=O)c1sc2c(c1C)c(=O)n(-c1ccc(Cl)cc1)c(=O)n2Cc1ccc(Cl)cc1 -12.3%
Cc1cc(C)c(Cn2c(C)c(CNCCCc3ccccc3)c(C(=O)O)c2C)c(C)c1 36.5%
Cc1cccc(NC(=O)c2cnn(-c3ccccc3)c2-n2cccc2)c1C 5.28%
CC(=O)N1CCC(N(Cc2ccco2)C(=O)Nc2cccc(C)c2)CC1 0.741%
CCOC(=O)c1cc2c(=O)n3ccccc3nc2n(CC2CCCO2)c1=NC(=O)c1cccc(C(F)(F)F)c1 (centres undefined) -6.74%
COc1ccc(-c2cc(C(=O)Nc3c(C(=O)c4ccc(Cl)cc4)oc4ccccc34)no2)cc1 -6.54%
CCC1CN(C(=O)N2CCC(C(=O)NCc3ccc(C)o3)CC2)c2cc(C)ccc2O1 (centres undefined) -12.1%
CCOC(=O)N1CCN(S(=O)(=O)N2CCCC(C(=O)NCc3cccc(OC)c3)C2)CC1 (centres undefined) -1.32%
Cc1nc2c(C(=O)NCc3ccccc3Cl)cnn2c(C)c1Cc1c(F)cccc1Cl -12.3%
O=C(NC1CC(=O)N(c2ccc(F)cc2)C1)c1cc2ccccc2o1 (centres undefined) -11.5%
CC(=O)N1CCCc2cc(S(=O)(=O)N3CCC(C(=O)NCCC(C)C)CC3)ccc21 10.3%
CN1CCN(C(c2ccccc2)c2sc3nc(-c4ccco4)nn3c2O)CC1 (centres undefined) -6.5%
COc1ccccc1NC(=O)n1ncc2c(C)cccc21 2.52%
CCOC(=O)c1nnc2c(-c3ccc(OC)cc3)c(C)nn2c1N -39%
Cc1ccc(C)c(NC(=O)CSc2cn(CC(=O)N3CCCC3)c3ccccc23)c1 -16.9%
CCCN1C(=O)C(NC(=O)c2ccccc2OC)(C(F)(F)F)C(C(=O)OC)=C1C (centres undefined) 9.31%
Cc1ccc2nc(NC(=O)c3cc(=O)c4cc(C)c(C)cc4o3)sc2c1 0.373%
CCOc1ccccc1C1C(C(=O)Nc2ccccc2OC)=C(C)Nc2nc3ccccc3n21 (centres undefined) -0.882%
CCOc1ccc(NC(=O)Cc2csc(COc3cccc(C)c3)n2)cc1 -6.82%
CO/S(=N\S(=O)(=O)c1ccc(Cl)cc1)c1ccc([N+](=O)[O-])cc1 (centres undefined) 5.83%
CSc1ccc(CNC(=O)CCn2ccc3cc(S(=O)(=O)N4CCCC4)ccc32)cc1 -5.38%
COc1ccccc1CNC(=O)c1ccc(C)c(-n2cnc3cccnc32)c1 1.45%
Cc1cc(C)c(NC(=O)CN(CC(=O)O)CC(=O)O)c(C)c1Br -59.6%
CCOc1ccc(NC(=O)Cn2c(C)ccc(C#N)c2=O)cc1 -8.32%
CCc1nnc2c3ccccc3nc(N3CCN(c4ccc(C)cc4C)CC3)n12 12.4%
CCOC(=O)c1ccccc1NC(=O)CN(c1ccccc1OC)S(=O)(=O)c1ccc(C)cc1 -5.91%

activation, active:
CCOc1ccc(CCNC(=O)Cn2c(-c3cccs3)cc3cc(F)ccc32)cc1OCC 112%
COc1ccc(C(=O)NCCc2sc(-c3cccc(F)c3)nc2C)cc1 67.2%
O=C(NCCc1csc(-c2cccnc2)n1)c1cccc(C(F)(F)F)c1 68.4%
